Among the data in article PMC4242493 are binding signal (normalized occupancy) values, retold here.

The list shows a part of the results. The list includes weakly bound sequences.

The assay addresses MaxL homodimer (UniProt P61244). As to the kind of experiment: universal protein-binding microarray (PBM). The conditions noted are these: PBS-based mixture, 10 nM His-tagged protein dimer, 2% milk, 200 ng/uL BSA, 50 ng/uL salmon testes DNA, 0.02% TX-100; detection with Alexa 488 anti-His …; high values mean tight binding; most listed sequences are background and not binding sites; double strand, one strand shown.
Sequence of UniProt P61244 (P61244 whole entry): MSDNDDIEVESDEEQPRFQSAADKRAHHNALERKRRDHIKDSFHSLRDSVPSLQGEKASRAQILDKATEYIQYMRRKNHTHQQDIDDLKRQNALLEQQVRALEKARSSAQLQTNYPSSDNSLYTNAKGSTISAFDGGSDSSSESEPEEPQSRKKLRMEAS
In the case of AATGACCC, the binding signal (normalized occupancy) was 0.0851.

On to CCTTTTGC, for which the binding signal (normalized occupancy) amounted to 0.0701.

Consider GACAAGGA, for which the binding signal (normalized occupancy) worked out at 0.0744. Take CGCTTTCC: the binding signal (normalized occupancy) worked out at 0.067. For GCATTGGC, the binding signal (normalized occupancy) was determined as 0.0747. Under ACCAATCC stands 0.0693.

As for ACGCTGGG, the binding signal (normalized occupancy) is 0.0772. On to ACCAGAGT, for which the binding signal (normalized occupancy) came to 0.0713.

As for CGATGCGA, the binding signal (normalized occupancy) turned out to be 0.0731. For CGACACTA, the binding signal (normalized occupancy) is 0.0759.

For the sequence ATCGCATC, the binding signal (normalized occupancy) was determined as 0.0742. On to ATAATGCA, for which the binding signal (normalized occupancy) is 0.0838. Consider AATCTCAC, for which the binding signal (normalized occupancy) came out at 0.0766. Next, GGTTCGCA: 0.0757; AGAAAGGA: 0.0795; GACTCACC: 0.0746. As to TATTCCGA, the binding signal (normalized occupancy) was 0.072. AATACGTC: the binding signal (normalized occupancy) turned out to be 0.0844. Next, CCATAGCA: 0.0766; TAGACTAA: 0.0729. For the sequence GCGATTTA, the binding signal (normalized occupancy) is 0.0734. For ACTCATGC, the binding signal (normalized occupancy) is 0.0969.

As to CTGGCCCA, the binding signal (normalized occupancy) turned out to be 0.068.

With ATCCGAAG, the binding signal (normalized occupancy) was found to be 0.0697. Under CGTCCACA stands 0.0803; under TAAGTCTA, 0.0772; under CGAGCGTC, 0.0698.

AGATTCCC: the binding signal (normalized occupancy) was determined as 0.0779. Under ACATTGCA stands 0.0807; under GCTAACTA, 0.0678. As to ACCGACAT, the binding signal (normalized occupancy) was found to be 0.0842.

With ATCACGTC, the binding signal (normalized occupancy) was 0.0875. Turning to CTACAGTA, the binding signal (normalized occupancy) came to 0.0804. Turning to ATGATATG, the binding signal (normalized occupancy) came out at 0.0845. GAGGGCGC: the binding signal (normalized occupancy) was 0.0712.

On to CGCAATAC, for which the binding signal (normalized occupancy) is 0.0776. Under CTTTAAAC stands 0.0744; under CATCAAGA, 0.0769. In the case of AAACGTAC, the binding signal (normalized occupancy) is 0.074. As for ATTTCCAA, the binding signal (normalized occupancy) is 0.0771. For the sequence CCGTTAAA, the binding signal (normalized occupancy) was determined as 0.0712.

As for AAGGTACG, the binding signal (normalized occupancy) stood at 0.0718. As to AATCAGGT, the binding signal (normalized occupancy) came out at 0.0742. Turning to CTCGTGTA, the binding signal (normalized occupancy) was found to be 0.103.

As for CACATCCA, the binding signal (normalized occupancy) turned out to be 0.0871. ACCGCTCA: the binding signal (normalized occupancy) was 0.0747. As for AATGTAGG, the binding signal (normalized occupancy) turned out to be 0.0765. As for TACAGGTA, the binding signal (normalized occupancy) was 0.0721. Next, AATAACGA: 0.0752. For the sequence CGCTTTAC, the binding signal (normalized occupancy) was 0.0725. As to AAAATTGT, the binding signal (normalized occupancy) was found to be 0.0706. Turning to AGCCGCGG, the binding signal (normalized occupancy) is 0.0667. As for AACTGAGC, the binding signal (normalized occupancy) turned out to be 0.0707. Next, ACGACCCC: 0.0759. Next, CCTCTCCG: 0.0668; ATGCCAAT: 0.0783; AGAAAGTA: 0.0718. As to CCAGGACG, the binding signal (normalized occupancy) was determined as 0.067. Under ACGTCGCG stands 0.0767. Under AAACCCCG stands 0.0809; under CCCTCAGC, 0.0733; under CAGGAATG, 0.0756.

For the sequence ATCCACCA, the binding signal (normalized occupancy) worked out at 0.0802. As for GGTAGCCA, the binding signal (normalized occupancy) was found to be 0.0732. With GGTTATAA, the binding signal (normalized occupancy) was found to be 0.0816.

Regarding CTCTTGGC, the binding signal (normalized occupancy) was found to be 0.0732. Next, AATGTGGG: 0.0907; AGGTATTG: 0.0765. As for GCAGGAGC, the binding signal (normalized occupancy) is 0.0659. For the sequence ATTGTCGC, the binding signal (normalized occupancy) came out at 0.0746.

Take TATTACAA: the binding signal (normalized occupancy) turned out to be 0.0802. In the case of CACGGATC, the binding signal (normalized occupancy) was found to be 0.0749.

As to AGGTATTC, the binding signal (normalized occupancy) was determined as 0.0792. Next, CAGGCCCA: 0.0716.

With CCCCCGCC, the binding signal (normalized occupancy) worked out at 0.0803. Under CATAGGAC stands 0.0862. With CTTTTGAA, the binding signal (normalized occupancy) was 0.0685. As for AGGCTCTC, the binding signal (normalized occupancy) was 0.0713. Under ATCCCTTG stands 0.0765; under GAGAGGAC, 0.0723; under GGCGACGA, 0.0664. With AGGTATAG, the binding signal (normalized occupancy) was 0.0766. Regarding TCCCTACA, the binding signal (normalized occupancy) was 0.0783. As to CATGGGTC, the binding signal (normalized occupancy) is 0.0915. Under CTCCCCTA stands 0.0765; under GCCCGGAC, 0.0693. For the sequence CGTGTTTA, the binding signal (normalized occupancy) was 0.0906. With TAATCTCA, the binding signal (normalized occupancy) was found to be 0.0735. On to GTTAGAAA, for which the binding signal (normalized occupancy) came to 0.0757. AGCTCGCA: the binding signal (normalized occupancy) was 0.0718. Next, ACCATACT: 0.0809; CGGCCCGA: 0.0673; ACTCGCAA: 0.0713. Under AACATGTG stands 0.184. On to GCAACAGC, for which the binding signal (normalized occupancy) is 0.071.

For the sequence CAATGGTG, the binding signal (normalized occupancy) is 0.073. Turning to CAGCGAAA, the binding signal (normalized occupancy) amounted to 0.0644. Turning to GCCAGCAA, the binding signal (normalized occupancy) came to 0.0729.

Regarding GCCCGATA, the binding signal (normalized occupancy) is 0.0777. Next, GGTCCTAC: 0.0703. Next, CGAACTAC: 0.0757; AAATCTTG: 0.0741; AATTTAAG: 0.0704.

In the case of CCCAATGA, the binding signal (normalized occupancy) was found to be 0.0746.

In the case of GGCGCGAC, the binding signal (normalized occupancy) worked out at 0.0676. Consider ACGACCGA, for which the binding signal (normalized occupancy) came to 0.0735.

With GCACCTGA, the binding signal (normalized occupancy) is 0.0804. Regarding ACTTCGCG, the binding signal (normalized occupancy) stood at 0.0677. As for CGAGAAAA, the binding signal (normalized occupancy) came out at 0.0723.

Turning to TACTTAAA, the binding signal (normalized occupancy) stood at 0.0723.

With AACTGGTC, the binding signal (normalized occupancy) turned out to be 0.0737.

Consider GTAGTAAA, for which the binding signal (normalized occupancy) is 0.0757. Turning to CAATTCAA, the binding signal (normalized occupancy) stood at 0.0746. Under GTCGGCAA stands 0.0674; under ACCTCTGG, 0.0714. In the case of AGTTTGCA, the binding signal (normalized occupancy) amounted to 0.0812.

With TTAAGGAA, the binding signal (normalized occupancy) was 0.0714.

For the sequence AGTGTAAT, the binding signal (normalized occupancy) came out at 0.0794. Consider AGTACCTG, for which the binding signal (normalized occupancy) stood at 0.0747. Regarding ACTATGTC, the binding signal (normalized occupancy) is 0.078.

As for CCCCAGCG, the binding signal (normalized occupancy) came to 0.0723. Turning to CCGACATA, the binding signal (normalized occupancy) is 0.083. Regarding ATGCGTTG, the binding signal (normalized occupancy) was determined as 0.0816. As to GTGATGTA, the binding signal (normalized occupancy) worked out at 0.0832. Next, CCCGCGCA: 0.0768; GTCTTAAC: 0.0741. As for TAATGCAA, the binding signal (normalized occupancy) was found to be 0.0814. Under ATCCCAAA stands 0.0753; under ATGCACGA, 0.0913. Regarding CCAAGTCG, the binding signal (normalized occupancy) turned out to be 0.0722.

On to AGGCTCAA, for which the binding signal (normalized occupancy) amounted to 0.0675. On to CCTGAACC, for which the binding signal (normalized occupancy) is 0.0747. Take ATAGCACG: the binding signal (normalized occupancy) turned out to be 0.0866. Turning to CCAACTCC, the binding signal (normalized occupancy) is 0.0719. Turning to GGGAGGGA, the binding signal (normalized occupancy) amounted to 0.08.

Turning to CTTCGTCC, the binding signal (normalized occupancy) came to 0.0666. For the sequence AGCTCGAA, the binding signal (normalized occupancy) was determined as 0.065. On to AGAGTCAC, for which the binding signal (normalized occupancy) was found to be 0.0766.

As for CGTATGGA, the binding signal (normalized occupancy) came out at 0.0815.

For TACCCCTA, the binding signal (normalized occupancy) worked out at 0.0823.

On to CGAGGAAA, for which the binding signal (normalized occupancy) was found to be 0.0761. Regarding ATCATGGA, the binding signal (normalized occupancy) is 0.0834. Turning to TCGACGCA, the binding signal (normalized occupancy) came to 0.0733. Under ATTGCCAG stands 0.0738; under CCACACTC, 0.0824.

Consider CACGCGTA, for which the binding signal (normalized occupancy) came to 0.121. ATGGTAAT: the binding signal (normalized occupancy) amounted to 0.0855. As to GACTGAGC, the binding signal (normalized occupancy) came out at 0.0658. With GAGGGCAC, the binding signal (normalized occupancy) was determined as 0.0786. Consider ATAGAAAA, for which the binding signal (normalized occupancy) came out at 0.0835.

Consider AATCCGCG, for which the binding signal (normalized occupancy) amounted to 0.0738.

Turning to ACCTTCAA, the binding signal (normalized occupancy) is 0.0719. Turning to CCTCAAGG, the binding signal (normalized occupancy) stood at 0.0722. In the case of CGAGTGAG, the binding signal (normalized occupancy) amounted to 0.0739. Under CCCACTTC stands 0.0745. As for GTATCAAC, the binding signal (normalized occupancy) amounted to 0.0867. Under ACTCCCAG stands 0.0739; under TTCATCAA, 0.0725.

Consider AGGGGCGA, for which the binding signal (normalized occupancy) was 0.0743. On to AGTTCTAG, for which the binding signal (normalized occupancy) was determined as 0.0691. Under AGGTCTGG stands 0.0697. For the sequence TTCCTAAA, the binding signal (normalized occupancy) was determined as 0.0761. Turning to CCAATCGG, the binding signal (normalized occupancy) was found to be 0.0718. Under ACCGTCAG stands 0.0692; under CCGTAGGA, 0.0843; under AATTCCTC, 0.0773. In the case of ACTGCGAT, the binding signal (normalized occupancy) amounted to 0.0712. Take ACACACCA: the binding signal (normalized occupancy) stood at 0.0816.

As to ACATCGCA, the binding signal (normalized occupancy) stood at 0.0786. CAACACGC: the binding signal (normalized occupancy) came to 0.0995. Regarding CGTACCAG, the binding signal (normalized occupancy) came out at 0.0729.

Regarding ACGCCATC, the binding signal (normalized occupancy) stood at 0.0794.
